Out of some 48,000 compounds screened, about 550 (1.1%) were called active. Inconclusive results (about 4%) are left out. Rule as the data show it: active = potency below about 15 µM; inconclusive = mostly about 16 µM to 33 µM; inactive = weaker than that. The list shows a part of the results. A value given as a limit tells only on which side of the number the result lay.
Potency is read from the fitted curve at half-maximal effect.

The assay concerns the target Lysosomal acid glucosylceramidase (Homo sapiens) (UniProt P04062). Description: Glucocerebrosidase.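 Also: the screen sought inhibitors.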 The following applies: purified enzyme, resorufin glucoside fluorescence (screen aimed at inhibitors), 20 min. An outline of the steps: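 Normal human glucocerebrosidase (0.2 nM final) was assayed with resorufin β-D-glucopyranoside (30 uM final) in 50mM citric acid/KH2PO4, 10mM sodium taurocholate, 0.01% tween-20, pH 5.9. Compounds were titrated; fluorescence (Ex 548, Em 600) read after 20 min at RT.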
UniProt P04062, sequence (P04062 whole entry, looked up): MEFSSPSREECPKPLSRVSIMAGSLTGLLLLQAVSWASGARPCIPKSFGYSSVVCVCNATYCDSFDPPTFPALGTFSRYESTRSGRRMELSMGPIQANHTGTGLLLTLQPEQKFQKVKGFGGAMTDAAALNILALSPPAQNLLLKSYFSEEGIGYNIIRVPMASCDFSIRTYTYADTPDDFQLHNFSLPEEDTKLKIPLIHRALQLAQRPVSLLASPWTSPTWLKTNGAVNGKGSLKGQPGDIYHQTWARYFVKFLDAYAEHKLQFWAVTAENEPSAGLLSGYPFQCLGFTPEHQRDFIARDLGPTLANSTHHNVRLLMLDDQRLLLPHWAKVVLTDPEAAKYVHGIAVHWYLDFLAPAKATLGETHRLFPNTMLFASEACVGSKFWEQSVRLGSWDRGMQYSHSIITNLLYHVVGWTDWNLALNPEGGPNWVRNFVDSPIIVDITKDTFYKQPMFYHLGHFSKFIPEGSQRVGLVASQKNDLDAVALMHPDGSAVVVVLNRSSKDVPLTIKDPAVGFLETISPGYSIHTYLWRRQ
On to `COc1ccc(S(=O)(=O)NCCSC(C)(C)C)cc1Cl`, for which the Potency is inactive: > 76.9 µM. The figure for `COc1cc(C(=S)N2CCCC2)cc(Cl)c1O` is inactive: > 76.9 µM; for `Cn1c(COc2ccc3ccccc3c2)nnc1SCC(=O)O` it is inactive: > 76.9 µM. With `CCOC(=O)C1CCN(c2c(NCc3ccc(C(=O)NC(C)CC)cc3)c(=O)c2=O)CC1` (stereo not drawn) the figure was inactive: > 76.9 µM; with `CC(=O)NC(C)C(=O)OCc1ccc(Cl)cc1Cl` (stereo not drawn), inactive: > 76.9 µM. With `C=CCSc1nc2ccccc2n1Cc1nnc(-c2cccs2)o1` the figure was inactive: > 76.9 µM; with `CCC1CCCCN1C(=O)CSc1nnc(CNC(=O)COc2ccc(Cl)cc2)o1` (stereo not drawn), inactive: > 76.9 µM; with `CCN(CC)S(=O)(=O)c1ccc2c(c1)nc(CCC(=O)OCc1c(C)noc1C)n2C`, inactive: > 76.9 µM. Consider `O=C1NC2(CCCCC2)Oc2ccccc21`, for which the Potency was inactive: > 76.9 µM. `O=C(O)COc1ccc2occ(C(=O)c3ccccc3)c2c1`: the Potency is inactive: > 76.9 µM. Turning to `O=C(NCCCN1CCCC1)c1cccc(N2CCCC2=O)c1`, the Potency was inactive: > 76.9 µM.

As to `Cc1nc2ccccn2c1/C(O)=C1\C(=O)C(=O)N(CCN2CCOCC2)C1c1cccs1` (stereo not drawn), the Potency is inactive: > 76.9 µM.

Regarding `CC[C@@H](C)[C@H](NC(=O)OC(C)(C)C)c1nnc(S(=O)(=O)Cc2cc(C)ccc2C)o1`, the Potency was inactive: > 76.9 µM. The figure for `CCCN1C2CCCC1CC(NC(=O)c1ccc(F)cc1)C2` (stereo not drawn) is inactive: > 76.9 µM. The figure for `CCN(CC)S(=O)(=O)c1cccc(-c2nnc(SCC(N)=O)n2CCc2ccccc2)c1` is inactive: > 76.9 µM; for `CCc1nc2oc3ccccc3c(=O)c2c(=O)n1-c1ccccc1` it is inactive: > 76.9 µM. With `COc1ccc(-n2c(N)c(-c3nc4ccccc4n3C)sc2=S)cc1` the figure was inactive: > 76.9 µM. Consider `Cc1nc(C)c(C(=O)OCC(=O)N2CCN(c3ccccc3)CC2)s1`, for which the Potency was inactive: > 76.9 µM.

Consider `Cc1ccc(-c2nc(C3CCN(S(=O)(=O)c4ccc(C(F)(F)F)cc4)CC3)no2)cc1`, for which the Potency is inactive: > 76.9 µM. With `COc1ccccc1-c1cc(C(=O)Nc2ccc(F)cc2F)no1` the figure was inactive: > 76.9 µM; with `Cc1onc(-c2ccccc2)c1C(=O)N1CCCN(C(=O)c2c(-c3ccccc3)noc2C)CC1`, inactive: > 76.9 µM. Take `Cc1cc(C)nc(NC(=O)c2c(-c3c(Cl)cccc3Cl)noc2C)n1`: the Potency is inactive: > 76.9 µM. As to `CC(OC(=O)c1cccc(NS(C)(=O)=O)c1)C(=O)Nc1ccc(N2CCOCC2)cc1` (stereo not drawn), the Potency was inactive: > 76.9 µM. The entry for `CCn1c2ccccc2c2cc(/C=N/n3cnnc3)ccc21` is “inactive”; for `CCCn1c(=O)[nH]c(=O)c2c1nc(-c1ccccc1OC(F)F)n2CCOC` it is inactive: > 76.9 µM; for `CCOc1ccccc1N1CCN(C(=O)c2cccc(-c3ccc(O)cc3)c2)CC1` it is inactive: > 76.9 µM. The figure for `C=C1C2(C(=O)NCc3ccco3)CCC(C2)C1(C)C` (stereo not drawn) is inactive: > 76.9 µM; for `CC(C)NS(=O)(=O)c1ccc(CCC(=O)NCc2cccnc2)cc1` it is inactive: > 76.9 µM. The figure for `CCCCOc1ccc(C(=O)Nc2ccc(N3CCN(C(=O)C(C)C)CC3)cc2)cc1` is inactive: > 76.9 µM; for `CCCCC1CCC(C(=O)NC2CCS(=O)(=O)C2)CC1` (stereo not drawn) it is “inactive”. In the case of `CC1Cc2ccccc2N1C(=O)COc1cccc(-n2cnnn2)c1` (stereo not drawn), the Potency is inactive: > 76.9 µM. The figure for `Cc1ccnc(N2CCC(C(=O)NCc3ccc4c(c3)OCO4)CC2)n1` is inactive: > 76.9 µM; for `O=S1(=O)CCC(SCc2nc3sccn3c2Br)C1` (stereo not drawn) it is inactive: > 76.9 µM; for `CCOc1[nH]c(/N=C/c2ccco2)c(C#N)c1C#N` it is “inactive”. With `COc1nc(C)ccc1-c1noc(-c2ccccn2)n1` the figure was inactive: > 76.9 µM; with `COc1ccc(C(=O)CSc2nnc(-c3cnccn3)n2Cc2ccco2)cc1`, inactive: > 76.9 µM; with `Cc1ccc(-n2nnnc2SCC(=O)N2CCN(C(=O)c3ccco3)CC2)c(C)c1`, inactive: > 76.9 µM. As to `COc1cccc(NC2=NCC(=O)N2Cc2cccs2)c1`, the Potency was inactive: > 76.9 µM. As to `CCOC(=O)c1c(C)n(C)c2ccc(OC)c(NS(=O)(=O)c3ccc(Cl)s3)c12`, the Potency was inactive: > 76.9 µM.

Consider `Cc1ccc(-n2c(CSc3nc(C)cc(C)n3)nnc2SCC(=O)N2CCCC2)cc1`, for which the Potency was inactive: > 76.9 µM. The figure for `OCCNc1nc(C2CC2)nc2c1nnn2Cc1ccccc1Cl` is inactive: > 76.9 µM; for `CC(C)NCC(O)COCc1ccc(Cl)cc1` (stereo not drawn) it is inactive: > 76.9 µM. Turning to `Cc1c2c(nc3c(C(=O)NC4CC4)cnn13)CCCC2`, the Potency is inactive: > 76.9 µM. For `CN(C)C(=O)CN1C(=O)C2CCCCN2C(=O)c2ccccc21` (stereo not drawn), the Potency is inactive: > 76.9 µM. With `Cc1cccc(-n2ccnc2SCC(=O)Nc2ccc3c(c2)OCCO3)c1` the figure was inactive: > 76.9 µM; with `O=C(O)CN1C(=O)CC(Cc2ccccc2)C1=O` (stereo not drawn), inactive: > 76.9 µM. With `COC(=O)c1cc(NCc2c(F)cccc2Cl)ccc1N1CCOCC1` the figure was inactive: > 76.9 µM; with `CCC(C)(C(=O)NC1CCCC1)N(C(=O)c1cnccn1)c1c(C)n(C)n(-c2ccccc2)c1=O` (stereo not drawn), inactive: > 76.9 µM. For `O=C(Cn1cccc1)NC1CCCCCC1`, the Potency was inactive: > 76.9 µM. The figure for `COCc1nnc(NC(=O)CCCOc2ccccc2)s1` is inactive: > 76.9 µM; for `O=C1CCN2C=Nc3cccc4ccc1c2c34` it is inactive: > 76.9 µM; for `NC(=O)CSc1nnc(CNc2ccc(F)cc2)n1CC1CCCO1` (stereo not drawn) it is inactive: > 76.9 µM. With `CCOc1ccc(CCNS(=O)(=O)c2cnc[nH]2)cc1OCC` the figure was inactive: > 76.9 µM. With `Nn1cc(-c2ccccc2)nc1SCC(=O)N1CCN(S(=O)(=O)c2ccc(Cl)cc2)CC1` the figure was inactive: > 76.9 µM. In the case of `CN(C)S(=O)(=O)N1CCN(CC(=O)Nc2cc(Cl)ccc2Cl)CC1`, the Potency was inactive: > 76.9 µM.

`COc1ccc(OC)c(C2=NO[C@@H]3C(=O)N(c4cc(Cl)ccc4OC)C(=O)[C@H]23)c1`: the Potency is inactive: > 76.9 µM. With `FC(F)(F)c1cc(-c2ccco2)nc(-n2nnc3ccccc32)n1` the figure was inactive: > 76.9 µM; with `CC(=O)NC(Cc1ccc(F)cc1)C(=O)N1CCN(C(=O)NCc2ccccc2)CC1` (stereo not drawn), inactive: > 76.9 µM.

(Values after PubChem BioAssay AID360 (National Center for Advancing Translational Sciences (NCATS), 2006).)
